# Results reported in the supplement of paper PMC8728848.
# The other results are listed elsewhere or left out.
# Assays:
# Assay in all cases: glycan array binding signal (z-score within array); higher = stronger binding
# Conditions in all cases: glycan notation: IUPAC condensed, linker removed
# [1] = target: GlcNAc(a1-3)Gal(b1-4)GlcNAc
# Outline: (§1)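 Glycan array data came from 3228 arrays in the Consortium for Functional Glycomics database, and only arrays with an available protein sequence were kept. Glycan names were put into IUPAC-condensed notation, and columns mapping to the same glycan were averaged. The binding signal is a within-array Z-score, averaged across arrays of one protein sequence run at different concentrations or buffers and across linkers. A negative Z-score can be read as non-binding.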
# [2] = target: GlcNAc(a1-4)Gal(b1-3)GlcNAc
# Outline: as §1
# [3] = target: GlcNAc(a1-4)Gal(b1-4)GalNAc
# Outline: as §1
# [4] = target: GlcNAc(a1-4)Gal(b1-4)GlcNAc
# Outline: as §1
# [5] = target: GlcNAc(a1-4)Gal(b1-4)GlcNAc(b1-3)Gal(b1-4)Glc
# Outline: as §1
# [6] = target: GlcNAc(a1-4)Gal(b1-4)GlcNAc(b1-3)Gal(b1-4)GlcNAc
# Outline: as §1
# [7] = target: GlcNAc(a1-4)Gal(b1-4)GlcNAc(b1-3)Gal(b1-4)GlcNAc(b1-3)Gal(b1-4)GlcNAc
# Outline: as §1
# [8] = target: GlcNAc(a1-4)Gal(b1-4)GlcNAc(b1-3)Gal(b1-4)[Fuc(a1-3)]GlcNAc(b1-3)Gal(b1-4)[Fuc(a1-3)]GlcNAc
# Outline: as §1
# [9] = target: GlcNAc(a1-6)Gal(b1-4)GlcNAc
# Outline: as §1
# [10] = target: GlcNAc(b1-2)Gal(b1-3)GalNAc
# Outline: as §1
# [11] = target: GlcNAc(b1-2)Man(a1-3)[GlcNAc(b1-2)Man(a1-6)]Man(b1-4)GlcNAc(b1-4)GlcNAc
# Outline: as §1
# [12] = target: GlcNAc(b1-2)Man(a1-3)[GlcNAc(b1-2)Man(a1-6)]Man(b1-4)GlcNAc(b1-4)[Fuc(a1-6)]GlcNAc
# Outline: as §1
# [13] = target: GlcNAc(b1-2)Man(a1-3)[GlcNAc(b1-4)][GlcNAc(b1-2)Man(a1-6)]Man(b1-4)GlcNAc(b1-4)GlcNAc
# Outline: as §1
# [14] = target: GlcNAc(b1-2)Man(a1-3)[GlcNAc(b1-4)][GlcNAc(b1-2)Man(a1-6)]Man(b1-4)GlcNAc(b1-4)[Fuc(a1-6)]GlcNAc
# Outline: as §1
# [15] = target: GlcNAc(b1-2)[GlcNAc(b1-4)]Man(a1-3)[GlcNAc(b1-2)Man(a1-6)]Man(b1-4)GlcNAc(b1-4)GlcNAc
# Outline: as §1
# [16] = target: GlcNAc(b1-2)[GlcNAc(b1-4)]Man(a1-3)[GlcNAc(b1-4)][GlcNAc(b1-2)Man(a1-6)]Man(b1-4)GlcNAc(b1-4)GlcNAc
# Outline: as §1
# [17] = target: GlcNAc(b1-2)[GlcNAc(b1-4)]Man(a1-3)[GlcNAc(b1-4)][GlcNAc(b1-2)[GlcNAc(b1-6)]Man(a1-6)]Man(b1-4)GlcNAc(b1-4)GlcNAc
# Outline: as §1
# [18] = target: GlcNAc(b1-2)[GlcNAc(b1-4)]Man(a1-3)[GlcNAc(b1-4)][GlcNAc(b1-2)[GlcNAc(b1-6)]Man(a1-6)]Man(b1-4)GlcNAc(b1-4)[Fuc(a1-6)]GlcNAc
# Outline: as §1
# [19] = target: GlcNAc(b1-2)[GlcNAc(b1-6)]Man(a1-6)[GlcNAc(b1-2)Man(a1-3)]Man(b1-4)GlcNAc(b1-4)GlcNAc
# Outline: as §1
# [20] = target: GlcNAc(b1-2)[GlcNAc(b1-6)]Man(a1-6)[GlcNAc(b1-2)Man(a1-3)]Man(b1-4)GlcNAc(b1-4)[Fuc(a1-6)]GlcNAc
# Outline: as §1
# [21] = target: GlcNAc(b1-2)[GlcNAc(b1-6)]Man(a1-6)[GlcNAc(b1-4)][GlcNAc(b1-2)Man(a1-3)]Man(b1-4)GlcNAc(b1-4)GlcNAc
# Outline: as §1
# GlcNAc(b1-3)Fuc = target: GlcNAc(b1-3)Fuc
# Outline: as §1
# GlcNAc(b1-3)Gal = target: GlcNAc(b1-3)Gal
# Outline: as §1
# [22] = target: GlcNAc(b1-3)Gal(b1-3)GalNAc
# Outline: as §1
# GlcNAc(b1-3)Gal(b1-4)Glc = target: GlcNAc(b1-3)Gal(b1-4)Glc
# Outline: as §1
# [23] = target: GlcNAc(b1-3)Gal(b1-4)GlcNAc
# Outline: as §1
# [24] = target: GlcNAc(b1-3)Gal(b1-4)GlcNAc(b1-2)Man(a1-3)[GlcNAc(b1-3)Gal(b1-4)GlcNAc(b1-2)Man(a1-6)]Man(b1-4)GlcNAc(b1-4)GlcNAc
# Outline: as §1
# [25] = target: GlcNAc(b1-3)Gal(b1-4)GlcNAc(b1-2)Man(a1-3)[GlcNAc(b1-3)Gal(b1-4)GlcNAc(b1-2)Man(a1-6)]Man(b1-4)GlcNAc(b1-4)[Fuc(a1-6)]GlcNAc
# Outline: as §1
# [26] = target: GlcNAc(b1-3)Gal(b1-4)GlcNAc(b1-2)[GlcNAc(b1-3)Gal(b1-4)GlcNAc(b1-6)]Man(a1-6)[GlcNAc(b1-3)Gal(b1-4)GlcNAc(b1-2)Man(a1-3)]Man(b1-4)GlcNAc(b1-4)GlcNAc
# Outline: as §1
# [27] = target: GlcNAc(b1-3)Gal(b1-4)GlcNAc(b1-3)Gal(b1-4)GlcNAc
# Outline: as §1
# [28] = target: GlcNAc(b1-3)Gal(b1-4)GlcNAc(b1-3)Gal(b1-4)GlcNAc(b1-2)Man(a1-3)[GlcNAc(b1-3)Gal(b1-4)GlcNAc(b1-3)Gal(b1-4)GlcNAc(b1-2)Man(a1-6)]Man(b1-4)GlcNAc(b1-4)GlcNAc
# Outline: as §1
# [29] = target: GlcNAc(b1-3)Gal(b1-4)GlcNAc(b1-3)Gal(b1-4)GlcNAc(b1-2)Man(a1-3)[GlcNAc(b1-3)Gal(b1-4)GlcNAc(b1-3)Gal(b1-4)GlcNAc(b1-2)Man(a1-6)]Man(b1-4)GlcNAc(b1-4)[Fuc(a1-6)]GlcNAc
# Outline: as §1
# [30] = target: GlcNAc(b1-3)Gal(b1-4)GlcNAc(b1-3)Gal(b1-4)GlcNAc(b1-2)[GlcNAc(b1-3)Gal(b1-4)GlcNAc(b1-3)Gal(b1-4)GlcNAc(b1-6)]Man(a1-6)[GlcNAc(b1-3)Gal(b1-4)GlcNAc(b1-3)Gal(b1-4)GlcNAc(b1-2)Man(a1-3)]Man(b1-4)GlcNAc(b1-4)[Fuc(a1-6)]GlcNAc
# Outline: as §1
# [31] = target: GlcNAc(b1-3)Gal(b1-4)GlcNAc(b1-3)Gal(b1-4)GlcNAc(b1-3)Gal(b1-4)GlcNAc(b1-2)Man(a1-3)[GlcNAc(b1-3)Gal(b1-4)GlcNAc(b1-3)Gal(b1-4)GlcNAc(b1-3)Gal(b1-4)GlcNAc(b1-2)Man(a1-6)]Man(b1-4)GlcNAc(b1-4)GlcNAc
# Outline: as §1
# [32] = target: GlcNAc(b1-3)Gal(b1-4)GlcNAc(b1-3)Gal(b1-4)GlcNAc(b1-3)Gal(b1-4)GlcNAc(b1-2)Man(a1-3)[GlcNAc(b1-3)Gal(b1-4)GlcNAc(b1-3)Gal(b1-4)GlcNAc(b1-3)Gal(b1-4)GlcNAc(b1-2)Man(a1-6)]Man(b1-4)GlcNAc(b1-4)[Fuc(a1-6)]GlcNAc
# Outline: as §1
# [33] = target: GlcNAc(b1-3)Gal(b1-4)GlcNAc(b1-3)Gal(b1-4)GlcNAc(b1-3)Gal(b1-4)GlcNAc(b1-2)[GlcNAc(b1-3)Gal(b1-4)GlcNAc(b1-3)Gal(b1-4)GlcNAc(b1-3)Gal(b1-4)GlcNAc(b1-6)]Man(a1-6)[GlcNAc(b1-3)Gal(b1-4)GlcNAc(b1-3)Gal(b1-4)GlcNAc(b1-3)Gal(b1-4)GlcNAc(b1-2)Man(a1-3)]Man(b1-4)GlcNAc(b1-4)[Fuc(a1-6)]GlcNAc
# Outline: as §1
# [34] = target: GlcNAc(b1-3)Gal(b1-4)GlcNAc(b1-3)Gal(b1-4)GlcNAc(b1-3)Gal(b1-4)GlcNAc(b1-3)Gal(b1-4)GlcNAc(b1-2)Man(a1-3)[GlcNAc(b1-3)Gal(b1-4)GlcNAc(b1-3)Gal(b1-4)GlcNAc(b1-3)Gal(b1-4)GlcNAc(b1-3)Gal(b1-4)GlcNAc(b1-2)Man(a1-6)]Man(b1-4)GlcNAc(b1-4)GlcNAc
# Outline: as §1
# [35] = target: GlcNAc(b1-3)Gal(b1-4)GlcNAc(b1-3)Gal(b1-4)GlcNAc(b1-3)Gal(b1-4)GlcNAc(b1-3)Gal(b1-4)GlcNAc(b1-2)Man(a1-3)[GlcNAc(b1-3)Gal(b1-4)GlcNAc(b1-3)Gal(b1-4)GlcNAc(b1-3)Gal(b1-4)GlcNAc(b1-3)Gal(b1-4)GlcNAc(b1-2)Man(a1-6)]Man(b1-4)GlcNAc(b1-4)[Fuc(a1-6)]GlcNAc
# Outline: as §1
binder,measurement,setting,value
"DC-Sign (Homo sapiens), Q9NNX6 (protein) MSDSKEPRLQQLGLLEEEQLRGLGFRQTRGYKSLAGCLGHGPLVLQLLSFTLLAGLLVQVSKVPSSISQEQSRQDAIYQNLTQLKAAVGELSEKSKLQEIYQELTQLKAAVGELPEKSKLQEIYQELTRLKAAVGELPEKSKLQEIYQELTWLKAAVGELPEKSKMQEIYQELTRLKAAVGELPEKSKQQEIYQELTRLKAAVGELPEKSKQQEIYQELTRLKAAVGELPEKSKQQEIYQELTQLKAAVERLCHPCPWEWTFFQGNCYFMSNSQRNWHDSITACKEVGAQLVVIKSAEEQNFLQLQSSRSNRFTWMGLSDLNQEGTWQWVDGSPLLPSFKQYWNRGEPNNVGEEDCAEFSGNGWNDDKCNLAKFWICKKSAASCSRDEEQFLSPAPATPNPPPA",glycan array binding signal (z-score),[1],-0.052
same,glycan array binding signal (z-score),[2],-0.185
same,glycan array binding signal (z-score),[3],-0.178
same,glycan array binding signal (z-score),[4],-0.127
same,glycan array binding signal (z-score),[5],-0.16
same,glycan array binding signal (z-score),[6],-0.186
same,glycan array binding signal (z-score),[7],-0.159
same,glycan array binding signal (z-score),[8],-0.137
same,glycan array binding signal (z-score),[9],-0.156
same,glycan array binding signal (z-score),[10],-0.085
same,glycan array binding signal (z-score),[11],-0.105
same,glycan array binding signal (z-score),[12],-0.154
same,glycan array binding signal (z-score),[13],-0.173
same,glycan array binding signal (z-score),[14],-0.046
same,glycan array binding signal (z-score),[15],-0.183
same,glycan array binding signal (z-score),[16],-0.156
same,glycan array binding signal (z-score),[17],-0.174
same,glycan array binding signal (z-score),[18],-0.179
same,glycan array binding signal (z-score),[19],-0.101
same,glycan array binding signal (z-score),[20],-0.173
same,glycan array binding signal (z-score),[21],-0.195
same,glycan array binding signal (z-score),GlcNAc(b1-3)Fuc,-0.17
same,glycan array binding signal (z-score),GlcNAc(b1-3)Gal,-0.2
same,glycan array binding signal (z-score),[22],-0.067
same,glycan array binding signal (z-score),GlcNAc(b1-3)Gal(b1-4)Glc,-0.168
same,glycan array binding signal (z-score),[23],-0.089
same,glycan array binding signal (z-score),[24],-0.127
same,glycan array binding signal (z-score),[25],-0.073
same,glycan array binding signal (z-score),[26],0.209
same,glycan array binding signal (z-score),[27],-0.139
same,glycan array binding signal (z-score),[28],-0.085
same,glycan array binding signal (z-score),[29],-0.066
same,glycan array binding signal (z-score),[30],-0.071
same,glycan array binding signal (z-score),[31],-0.122
same,glycan array binding signal (z-score),[32],-0.092
same,glycan array binding signal (z-score),[33],-0.101
same,glycan array binding signal (z-score),[34],-0.127
same,glycan array binding signal (z-score),[35],-0.126
